In PubChem BioAssay AID504832 (National Center for Advancing Translational Sciences (NCATS), 2011):
“And” between values parts separate entries of the source, which are not always exact repeats. Equal entries are not always repeated. Screen size: about 310,000 compounds; about 18,000 (5.8%) were called active. Inconclusive results, whose numbers are uncertain, are shown with a selection of clear calls. The call rests on the fitted dose curve; in most records, active means well fitted inhibition curve with a large enough effect; inconclusive means small, poorly fitted or top-dose-only effect, or another doubt; inactive means no such curve, though single readings can be large or run the other way. Potencies of inconclusive entries are left out as doubtful fits.

Assay: Primary qHTS for delayed death inhibitors of the malarial parasite plastid, 48 hour incubation
Conditions: P. falciparum luciferase growth in erythrocytes; series mostly up to 28.7 µM
Method in brief: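 In quantitative HTS format, infected erythrocytes bearing luciferase-reporter parasites were treated for a single generation at 37 C. Luminescence after adding detection reagent served as the growth measure.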
Potency means the concentration at half of the fitted maximal effect; tags describe the fitted curve by direction and shape.

| Compound | Potency |
| --- | --- |
| Cc1cccc2cc(CN(Cc3nnnn3Cc3ccccc3)C3CCCC3)c(=O)[nH]c12 | inconclusive [inhibitor, partial curve] |
| COc1ccc(NC(=O)CSc2nnc(Cc3cccs3)n2C)cc1 | inconclusive [inhibitor, single point] |
| CC(C)Nc1ccc(-n2nc3ccccc3[n+]2[O-])cc1 | inactive |
| O=C(CN1C(=O)C2CCCCC2C1=O)Nc1cc([N+](=O)[O-])ccc1F (stereo not drawn) | inconclusive [inhibitor, single point] |
| COc1ccc(C2c3ccc4ccccc4c3Oc3ncn(CCCN(C)C)c(=N)c32)cc1 (stereo not drawn) | active: 1.65 µM |
| COC(CNC(=O)c1ccc(Cn2c(=S)[nH]c3cc4c(cc3c2=O)OCO4)cc1)OC | inconclusive [inhibitor, single point] |
| O=C(NCCc1nc2ccccc2[nH]1)c1ccc([N+](=O)[O-])cc1 | inactive |
| CC(=O)n1cc([C@@H]2C=C(C(=O)N3CCN(Cc4ccccc4)CC3)O[C@H](OCc3ccc(CO)cc3)C2)c2ccccc21 | active: 0.928 µM |
| COc1cccc(NC(=O)c2ccc3c(O)c(S(=O)(=O)c4ccccc4)c(=O)[nH]c3c2)c1 | inactive |
| COc1ccccc1C(=O)N(Cc1ccccc1)c1ccc(C)cc1 | inconclusive [inhibitor, single point] |
| CN1CCN(C(=O)c2cc3nc(-c4ccco4)cc(C(F)(F)F)n3n2)CC1 | inactive |
| NC(=O)C1CCN(C(=O)C(=O)c2cn(CC(=O)N3CCCCCC3)c3ccccc23)CC1 | inconclusive [inhibitor, partial curve, poor fit] |
| C=CCn1c[n+](CC(=O)c2ccc(Br)s2)c2ccccc21 | inconclusive [inhibitor, single point] |
| COc1cccc(CNc2ncn[nH]2)c1OCc1ccccc1F | inconclusive [inhibitor, single point] |
| COc1ccc(C2=NOC(Cn3nc(C(=O)NCc4ccc5c(c4)OCO5)cc3-c3ccccc3)C2)cc1 (stereo not drawn) | active: 9.28 µM |
| O=C(NC1CCCCC1)C(c1ccccc1F)N(Cc1ccco1)C(=O)Cn1nnc2ccccc21 (stereo not drawn) | inconclusive [inhibitor, partial curve, poor fit] |
| Cc1csc(NC(=O)CSc2nnc(-c3ccoc3C)n2C(C)c2ccccc2)n1 (stereo not drawn) | inconclusive [inhibitor, single point] |
| Cc1cccc2cc(CN(Cc3nnnn3Cc3ccco3)C3CCCC3)c3nnnn3c12 | inconclusive [inhibitor, single point] |
| Cc1cc(/C=C2\C(=O)NC(=O)N(c3ccc(F)cc3)C2=O)c(C)n1-c1ccc(C(=O)O)cc1 | inactive |
| CC(=C/C(=O)O)/C(=C\c1ccc(Br)o1)C(=O)O | inactive |
| CCOC(=O)C1(CCSC)NC(c2ccco2)C2C(=O)N(CC)C(=O)C21 (stereo not drawn) | inactive |
| O=C(c1ccc(Cl)c(S(=O)(=O)NCc2ccccc2)c1)N1CCN(c2ccccn2)CC1 | inconclusive [inhibitor, partial curve] |
| CCOc1ccc(NC(=O)CN2CCCC2c2cccs2)cc1S(=O)(=O)N1CCCCC1 (stereo not drawn) | active: 11.7 µM |
| CCN(CC)S(=O)(=O)c1ccc(C(=O)N2CCCCC2)cc1 | inactive |
| CCCN(CC(=O)Nc1ccccc1C)C(=O)c1ccc(S(=O)(=O)N2CCC(C)CC2)cc1 | inconclusive [inhibitor, single point] |

| Compound | Potency |
| --- | --- |
| COc1ccc(-c2c(C)nn3c(C)cc(C)nc23)cc1 | inactive |
| CC1(C)CC(=O)c2c(S(C)(=O)=O)sc(Br)c2C1 | inconclusive [inhibitor, partial curve, poor fit] |
| CCc1ccc2c(c1)c1nnc(NN)nc1n2CC | inconclusive [inhibitor, single point] |
| Cc1ccc(C(=O)OC(C)C(=O)c2cc(C)c(C)cc2C)o1 (stereo not drawn) | inconclusive [inhibitor, single point] |
| COCCn1c(C)cc(C(=O)CSc2ccc(NC(C)=O)cc2)c1C | inactive |
| COc1cc(C(=O)Nc2cccc(NC(=O)c3cccs3)c2)cc(OC)c1OC | inconclusive [inhibitor, single point] |
| CCc1c(C)nc2cc(-c3cccc(Br)c3)[nH]n2c1=O | inconclusive [inhibitor, partial curve, poor fit] |
| Cc1cc(C(=O)N/N=C/c2ccc([N+](=O)[O-])s2)c2ccccc2n1 | active: 4.65 µM |
| CC(C)CC(c1nnnn1Cc1ccc2c(c1)OCO2)N1CCC(C(N)=O)CC1 (stereo not drawn) | inactive |
| Cc1ccc(C(=O)OCC(=O)NCc2ccccc2)cc1S(=O)(=O)N1CCCCC1 | inconclusive [inhibitor, single point] |
| COc1ccc(N=C/C=C2/C=C(c3ccccc3)OC(C)(C)O2)cc1 | inconclusive [inhibitor, single point] |
| O=C(NCCc1ccccc1)C1CCC(CNc2c(N3CCCCC3)c(=O)c2=O)CC1 (stereo not drawn) | inactive |
| Cc1noc(C)c1-c1nnc(-c2ccc(C(F)(F)F)cc2)o1 | inactive |
| OC(CN1C2=NCCCN2c2ccccc21)c1ccc(Br)cc1 (stereo not drawn) | inconclusive [inhibitor, partial curve, poor fit] |
| COc1ccccc1Nc1nc(-c2cccnc2)cs1 | inactive |
| CCCCCc1ccc(OCCCC[n+]2ccc(C)cc2)c(CCCCC)c1 | active: 0.465 µM |
| COc1cccc(C(=O)Nc2cccc(OCC(=O)c3ccccc3)c2)c1 | inconclusive [inhibitor, single point] |
| O=C(CCCN1CC=C(n2c(=O)[nH]c3ccccc32)CC1)c1ccc(F)cc1 | active: 13.5 µM and active: 8.28 µM |
| Cc1oc(-c2ccc3c(c2)OCCO3)cc1C(=O)NCC(=O)O | inconclusive [inhibitor, single point] |
| CS(=O)(=O)N(CC(=O)NCCSCc1ccco1)c1ccc(Cl)cc1 | inactive |
| COc1ccc(-c2csc(NC(=O)COC(=O)Cc3ccccc3)n2)cc1OC | inactive |
| O=C(NCCN1CCOCC1)c1cc(Cl)ccc1[N+](=O)[O-] | inactive |
| COc1cc(CNc2ccc3c(c2)CCC3)cc(OC)c1O | inactive |
| CCC1CCCCN1CCCNC(=O)c1ccc(CS(=O)(=O)c2ccccc2OC)o1 (stereo not drawn) | inactive |
| CC(/C=N/N1CCN(c2ccccc2)CC1)=C\c1ccco1 | inactive |

| Compound | Potency |
| --- | --- |
| CC(C)C[C@H](N)c1cn([C@@H](Cc2ccc(O)cc2)C(=O)N2CCNCC2)nn1 | inactive |
| COc1ccc2oc(C(=O)OC(C)C(=O)NC3(C#N)CCCCC3)c(C)c2c1 (stereo not drawn) | inconclusive [inhibitor, single point] |
| COc1cc2oc(-c3ccc(O)cc3)cc(=O)c2c(OC)c1O | inconclusive [inhibitor, partial curve] |
| CCOc1ccc(NC(=O)C2CCCN(c3nn4c(=O)cc(C)nc4s3)C2)cc1 (stereo not drawn) | inconclusive [inhibitor, partial curve, poor fit] |
| Cc1ccc(NC(=O)c2ccc(N/N=C/c3cccc(O)c3)c([N+](=O)[O-])c2)cc1 | inconclusive [inhibitor, full curve, poor fit] |
| c1ccc(-c2cn3c(n2)CCc2ccc4cccnc4c2-3)cc1 | active: 10.4 µM |
| COc1ccc(Cl)cc1NC(=O)CN(C)C(=O)c1ccc2n[nH]nc2c1 | inconclusive [inhibitor, full curve, poor fit] |
| Cc1cc(=O)[nH]c2c(C)c(N)ccc12 | inactive |
| CCOc1ccc(CN2CCN(C(=O)c3cccc(F)c3)CC2)cc1 | inactive |
| Cc1cc(C)c(C)c(S(=O)(=O)Nc2ccc(O)cc2)c1C | active: 7.38 µM |
| O=C(Nc1ccc(S(=O)(=O)Nc2nccs2)cc1)c1ccc(S(=O)(=O)N2CCOCC2)cc1 | inconclusive [inhibitor, partial curve, poor fit] |
| Cc1ccc(C(=O)Nc2nnc(S(=O)(=O)N3CCOCC3)s2)cc1 | inactive |
| CCn1ccnc1CNC(=O)C1CCC(=O)N(Cc2cccc(C(F)(F)F)c2)C1 (stereo not drawn) | inactive |
| Cc1c(Cl)cccc1NC(=O)COC(=O)Cn1cnc2c1c(=O)n(C)c(=O)n2C | inactive |
| Cn1cc([N+](=O)[O-])c(C(=O)Nc2nc(-c3ccc(Cl)cc3)cs2)n1 | inactive |
| CCC(C)(C)n1nnnc1C(C(C)C)N(Cc1cccnc1)Cc1ccco1 (stereo not drawn) | inconclusive [inhibitor, partial curve] |
| CCCOc1ccc(N2C(=O)CC(N(Cc3ccc(OC)cc3)C(=S)Nc3ccccc3)C2=O)cc1 (stereo not drawn) | inconclusive [inhibitor, single point] |
| COc1ccc(CCC(=O)N2CCN(c3ccc([N+](=O)[O-])cc3)CC2)cc1OC | inactive |
| CCOC(=O)c1ccccc1NC(=O)COC(=O)c1ccccc1C(=O)N(C)c1ccccc1 | inconclusive [inhibitor, single point] |
| O=C(NNC(=O)c1ccccc1Cl)c1ccc(-n2cncn2)c([N+](=O)[O-])c1 | inactive |
| COc1ccccc1-c1csc(NC(=O)c2cc(-c3cccs3)nc3ccccc23)n1 | inconclusive [inhibitor, single point] |
| COc1ccc(-c2noc(=O)n2Cc2ccccc2F)cc1 | inactive |
| CCOC(=O)N1CCC(N2CCCC(C(=O)c3cc(F)ccc3OC)C2)CC1 (stereo not drawn) | inconclusive [inhibitor, partial curve] |
